Out of some 360,000 compounds screened, about 6,000 (1.7%) were called active. This list was built around the results that the source calls inconclusive (neither active nor inactive); the mix of calls is not that of the screen. Calls come from the whole dose curve; as a rule, active = well fitted cell-killing curve with a large enough effect; inconclusive = small, poorly fitted or top-dose-only effect, or effect the other way; inactive = flat fitted curve, though single readings scatter. Potencies of inconclusive entries are left out as doubtful fits.
experiment: qHTS for induction of synthetic lethality in tumor cells producing 2HG: qHTS for the HT-1080-NT fibrosarcoma cell line; conditions: HT-1080-NT fibrosarcoma viability, CellTiter-Glo ATP luminescence, 48 h; activity, negative = less viability: at 46.1 µM (top of the series) unless noted;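 note: NT is the 2HG producing partner of a matched IDH1 knockdown line; nearly all actives have a fitted effect of over 55% in size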;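 for activity, negative = less viability: 0% = DMSO-treated cells and -100% = media-only wells without cells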
Summary of the method: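 Toxicity toward the 2HG-producing NT line was scored as %Activity, normalised to DMSO and no-cell wells, from CellTiter-Glo luminescence after 48 hours' treatment.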
Potency is the fitted concentration of half-maximal effect; tags give direction and shape of the fitted curve.

Row | SMILES | Potency | activity, negative = less viability
1 | Cn1c(NCC(O)c2ccccc2)nc2c1c(=O)n(Cc1ccc(Cl)cc1)c(=O)n2C (stereo not drawn) | inconclusive [cytotoxic, single point] | –
2 | C=CCNc1ncnc2c1ncn2[C@H]1CN(Cc2ccco2)C[C@@H](CO)O1 | inconclusive [rising, single point] | –
3 | COc1cc(NC(=O)c2cccc3c(-c4cnn(C)c4)coc23)cc(OC)c1OC | inconclusive [cytotoxic, partial curve, poor fit] | –
4 | Cn1cnnc1Sc1ccc(C(=O)NCCC23CC4CC(CC(C4)C2)C3)cc1[N+](=O)[O-] | inconclusive [cytotoxic, partial curve] | –
5 | Cn1nc(C(F)(F)F)c(-c2ccc(Br)cc2)c1NC(=O)c1ccco1 | inconclusive [cytotoxic, single point] | –
6 | CCN1CCc2nc(N)oc2CC1 | inconclusive [rising, partial curve] | –
7 | COc1ccc(NC(=O)C2(C)CCN2C(=O)Cc2ccccc2)cc1OC (stereo not drawn) | – | inactive: 18.6%
8 | O=C(NNc1ncnc2c1cnn2-c1cccc(Cl)c1)c1ccco1 | inconclusive [cytotoxic, single point] | –
9 | CC(C)C(=O)Nc1cc(S(=O)(=O)N2CCOCC2)ccc1N1CCCCC1 | – | inactive: -0.201%
10 | C#CCOCCOCCOCCNc1nc(N2CCN(C(=O)CCCCCCCCCCNC(=O)[C@H]([C@@H](C)CC)n3cc(CCCCN=C(N)N)nn3)CC2)nc(N2CCN(C(=O)CCCCCCCCCCNC(=O)[C@@H]([C@H](C)O)n3cc(C)nn3)CC2)n1 | inconclusive [cytotoxic, single point] | –
11 | COc1ccc(CC(=O)N2N=C(c3ccncc3)CC2(O)C(F)(F)F)cc1 (stereo not drawn) | active: 14.6 µM | –
12 | CC[C@](C)(O)c1cc2ccccc2c(=O)o1 | – | inactive: 17.6%
13 | Cc1ccc(OCc2ccc(C(=O)Nc3nc4ccccc4n3Cc3ccccc3)o2)c([N+](=O)[O-])c1 | inconclusive [cytotoxic, partial curve] | –
14 | O=C(c1sccc1Cl)N1CCN(Cc2ccc3c(c2)OCO3)CC1 | – | inactive: -15.1%
15 | CC1CCN(C(=O)CSc2nc3ccccc3c(=O)n2Cc2ccc3c(c2)OCO3)CC1 | inconclusive [cytotoxic, single point] | –
16 | Cc1noc(C)c1COc1ccc(C(=O)OC(C)C(=O)Nc2ccc(S(=O)(=O)N3CCOCC3)cc2)cc1 (stereo not drawn) | – | inactive: 23.2%
17 | O=C(O)CCCN1C(=O)/C(=C/c2cn(-c3ccccc3)nc2-c2cccs2)SC1=S | inconclusive [cytotoxic, single point] | –
18 | CCC(=O)Nc1nc(C)c(-c2csc(Nc3cccc(O)c3)n2)s1 | inconclusive [cytotoxic, full curve] | –
19 | CCOC(=O)c1c(-c2ccc(C)o2)csc1NC(=O)CN1CCC(C(N)=O)CC1 | inconclusive [cytotoxic, single point] | –
20 | CC(=NCc1ccco1)C1=C(O)c2ccccc2C1=O | inconclusive [cytotoxic, single point] | –
21 | CCOC(=O)c1c(NC(=O)CN2CCCCC2)sc2c1CCN(C(=O)OCC)C2 | inconclusive [cytotoxic, single point] | –
22 | CCCn1c2ccccc2c2cnn(CC(=O)NC3CCN(Cc4ccccc4)CC3)c(=O)c21 | – | inactive: -0.833%

Row | SMILES | Potency | activity, negative = less viability
23 | Cc1ccc(OCc2cc(C(=O)N(C)Cc3cnn(-c4ccccc4C)c3)no2)cn1 | active: 18.4 µM | –
24 | COc1ccc(Nc2ncnc3c2cnn3Cc2ccccc2)cc1OC | inconclusive [cytotoxic, single point] | –
25 | COC(=O)c1cnc(Oc2ccc(NC(=O)NC(=O)c3c(F)cccc3Cl)cc2)cc1C(F)(F)F | inconclusive [cytotoxic, full curve] | –
26 | O=C(O)c1cc(S(=O)(=O)NCCOc2ccccc2)ccc1Cl | – | inactive: 19.5%
27 | Cc1ccc(S(=O)(=O)Cc2ccccc2Cl)cc1 | – | inactive: -24.8%
28 | CCCc1nc(NCc2ccncc2)c2nnn(Cc3ccccc3F)c2n1 | inconclusive [cytotoxic, partial curve] | –
29 | O=C(N/N=C/c1cccc(Br)c1)c1ccc(N2CCCC2=O)cc1 | inconclusive [cytotoxic, single point] | –
30 | O=C(NC(Nc1ncc(S(=O)(=O)c2ccc([N+](=O)[O-])cc2)s1)(C(F)(F)F)C(F)(F)F)c1ccc(Cl)cc1 | active: 3.26 µM | –
31 | CCCCN1CCCCC1(C)C(=O)NCc1cccs1 (stereo not drawn) | – | inactive: 20%
32 | O=C(/C=C/c1ccccc1Cl)Nc1cccc(S(=O)(=O)NC2=NCCCCC2)c1 | inconclusive [cytotoxic, single point] | –
33 | Cc1ccc(-c2cnc(NC(=O)c3cccc(Br)c3)s2)c(C)c1 | – | inactive: -7.7%
34 | Oc1ccc(/C=N/NC(=S)NC2CC3CCC2C3)cc1 (stereo not drawn) | inconclusive [cytotoxic, single point] | –
35 | C[N+](C)(C)CCOC(=O)CCC(=O)OCC[N+](C)(C)C | inconclusive [rising, partial curve] | –
36 | Cc1ccc(-n2c(C)cc(C3=NNC(=NC4CC4)SC3)c2C)cc1C | inconclusive [cytotoxic, single point] | –
37 | COCCN=C1OC(=O)N2C(=O)C3=C4[C@@H](C[C@H]5C(=O)N(c6ccccc6)C(=O)[C@H]5[C@H]4[C@@]12Cc1ccccc1)[C@H]1C(=O)N(c2ccccc2)C(=O)[C@H]1[C@H]3C | inconclusive [rising, single point] | –
38 | COc1ccccc1CNC(=O)CCC(=O)N1CC(C)Sc2ccccc21 (stereo not drawn) | – | inactive: 0.709%
39 | CC(=O)Nc1ccc(C(=O)N2CC(=O)NC(=O)C2)cc1 | – | inconclusive: 30.4%
40 | O=[N+]([O-])c1ccccc1/C=N/N1CCN(c2ccccn2)CC1 | – | inactive: 1.27%
41 | CCNc1ccc(C(=O)OCC)cc1NC(=O)c1cccc(N(C)C)c1 | active: 1.78 µM | –
42 | c1ccc(-n2ncc3c(NCc4ccco4)ncnc32)cc1 | inconclusive [cytotoxic, single point] | –
43 | COc1ccc(-c2sc3cc(OC)c(OC)cc3c2-c2ccc(O)cc2)cc1 | inconclusive [cytotoxic, single point] | –

Source: PubChem BioAssay AID686970 (National Center for Advancing Translational Sciences (NCATS), 2013)
